These results are taken from the RNAGym collection of RNA variant scans (doi:10.1073/pnas.2313332121).

Sequences and labels used below:
B1: TPR 5TU (parent)
chain: GGAUCUUCUCGAUCUAACAAAAAAGACAAAUCUGCCACAAAGCUUGAGAGCAUCUUCGGAUGCAGAGGCGGCAGCCUUCGGUGGCGCGAUAGCGCCAACGUUCUCAACUAUGACACGCAAAACGCGUGCUCCGUUGAAUGGAGUUUAUCAUG

Variants at the background level are over-represented here.

The variants in this series derive from B1. Kind of series: polymerase ribozyme fitness, log enrichment relative to wild type (log ratio); higher = more active; in vitro selection for triplet polymerase activity. An outline of the steps:
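Mutant libraries of each subunit of a heterodimeric triplet polymerase ribozyme were built by PCR and transcribed. Each library went through one round of in vitro selection in triplicate: annealing with biotinylated primer, partner subunit and triplets, frozen incubation at −7 °C, gel excision of extended constructs, streptavidin-bead capture and RT-PCR. Input and output libraries were Illumina-sequenced; only genotypes with ≥10 input reads and ≥1 read per output were kept. Fitness is log2(genotype enrichment/wild-type enrichment), using inverse-variance-weighted replicate averages.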
Regarding GGAUCUUCUCGAUCUAACAAAAAAGACAAAUCUGACACAAAGCUUGAGAGCAUCUUCGGAUGCAGAGGCGGCAGCCUUCGGUGGCGCGAUAGCCCCAACGUUCUCAACUAUGACACGCAAAACGCGUGCUCCGUUGAAUGGAGUUUAUCAUG, the “polymerase ribozyme fitness (log ratio)” value was -2.74.

For GGAUCUUCUCGAUCUAACAAAAAAGACAAAUCUGACACAAAGCUUGAGACCAUCAUCUGAUGCAGAGGCGGCAGCCUUCGGUGGCGCCAUAGCGCCAACGUUCUCAACUGUGACACGCAAAACGCGUGCUCCGUUGAAUGGAGUUUAUCAUG, the “polymerase ribozyme fitness (log ratio)” value was not above -4.2.

Take GGAUCUUCUCGAUCUAACAAAAAAGACAAAUCUGACACAAAGCUUGAGAACAUCAUCGGAUGCAGAGGCGGCAGGCUUCGGUGGCGCGAUAGCGCCAACGUUCUCAACUAUGAGACGCAAAACGCGUGCUCCGUUGAAUGGAGGUUAUCACG: the “polymerase ribozyme fitness (log ratio)” value is not above -4.2.

Turning to GGAUCUUCUCGAUCUAACAAAAAAGACAAAUCUGACACAAAGCUUGAGACCAUCAUCGGAUGCAGAGGCGGCAGCCUUCGGUGGCACGAUAGCGCCAACGUUCUCAACUAUGAAACGCAAAUCGCGUGCUCCGUUCAAUGGAGUUUAUCAUG, the “polymerase ribozyme fitness (log ratio)” value is not above -4.2.

Regarding GGAUCUUCUCGAUCUAACAAAAAAGACAAAUCUGACACAAAGCUUGAGAGCAUCUUCGGAUGCAGAGCCGGCAGCCUUCCGUGGCGCGAUAGUGCCAACGUUCUCAACUAUGACACGCAAAACGCGUGCUCCGUUGAAUGGAAUUUAUCAUG, the “polymerase ribozyme fitness (log ratio)” value is not above -4.2.

Regarding GGAUCUUCUCGAUCUAACAAAAAAGACAAAUCUGACACAAAGCUUGAGAGCAUCUUCGGAUGCAGAGGCGGCAGCCUUCGGUGGCGCGAUAGCGCCAACGUUCUCAAUUACGACACGCAAAACGCGUGCUCCGUUGAAUGGAGUUUAUCAUG, the “polymerase ribozyme fitness (log ratio)” value is not above -4.2.

For GGAUCUUCUCGAUCUAACAAAAAAGACAAAUCUGACACAAAUCUUGAAAGCAUCUUCGGAUGCAGAGACGGCAGCCUUCGGUGGCGCGAUAGCGCCAACGUUCUCCACUAUGACAUGCAUAACGCGUGCUCCGUUGAAUGAAGUUUAUCAUG, the “polymerase ribozyme fitness (log ratio)” value is not above -4.2.

Consider GGAUCUUCUCGAUCUAACAAAAAAGACAAAUCUGACACAAAGCUUGAGAGCAUCUUCGGAUGCAGAGGCGGCAGCCUUCGGUGGCUGGAUAGCGCCUACGUUCUUAACUAUGACACGCUAAACGCGUGCUCCGUUGAAUGGAGUUUAUCCUG, for which the “polymerase ribozyme fitness (log ratio)” value was not above -4.2.

Regarding GGAUCUUCUCGAUCUAACAAAAAAGACAAAUCUGACACAAAGCUUGAGAGCAUCUUCGGAUGCAGAGGCGGCAGCCUUCGGUGGCGCGAUAGCGCCAAUGUUCUCAACUAUGACACGCAAAACGCGGGCUCCGUCGAAUGGAGUUUACCAUG, the “polymerase ribozyme fitness (log ratio)” value was not above -4.2.

For GGAUCUUCUCGAUCUAACAAAAAAGACAAAUCUGACACAAAGCUUGAGAGCAUCUUCGGAUGCAGAGGCGGCAGCCUUCGGUGGCUCGAUAGCGCCAACGUUCUCAACUUUGACACGCAAAACGCGUGCUCCGUUGAAUGAAGUUUAUCAUG, the “polymerase ribozyme fitness (log ratio)” value was not above -4.2.

As to GGAUCUUCUCGAUCUAACAAAAAAGACAAAUCUGACACAAAGCUUGAGAGCAUCUUCGUAUGCAGAGGCGGCAGCCUACGGUGGCGCGAUAGCGCCAACGUUCUCAACUAUGACACGCAAAACGCGUGCUCCGUUGAAUGGAGUUUAUCAUG, the “polymerase ribozyme fitness (log ratio)” value is not above -4.2.

For GGAUCUUCUCGAUCUAACAAAAAAGACAAAUCUGACACAAAGCUUGAGAGCAUCUUCCGAUGCAGAGGCGGCAGCCUUCGGUGGCGCGAUAGAGCCAACGUUCUCAACUAUGACACGCAAAACGCGUUCUCCGUUGCAUGGAGUUUAUCGUG, the “polymerase ribozyme fitness (log ratio)” value is not above -4.2.

Regarding GGAUCUUCUCGAUCUAACAAAAAAGACAAAUCUGACACAAAGCUUAAGAGCAUCUUCGGAUGCAGAGGCGGCAGCCUUCGGUGGCGCGAUAGCGCCAACGUUGUCAACUAUGACACGGAAAACGCGUGCUCCGUCGAAUGGAGUUUAUCAUG, the “polymerase ribozyme fitness (log ratio)” value was not above -4.2.

With GGAUCUUCUCGAUCUAACAAAAAAGACAAAUCUGACACAAAGCUUGAGAGCAUCUUCGGAUCCAGAGGCGGCAGCCUUCGGUGGCGCGAUAGCGCCAACGUUCUCAACGAUGACACGCAAAUCGCGUGCUCCGUUGAAUGGCGUUUAUCAUG, the “polymerase ribozyme fitness (log ratio)” value is not above -4.2.

With GGAUCUUCUCGAUCUAACAAAAAAGACAAAUCUGACACAAAGCUUGAGAGCAUCUUCGGAUGCAGAGCCGGUAGCCUUCGGUGUCGCGAUAGCGCCAACGUUCUCAACUAUGACACGCAAAACACGUGCUCCGUUGAAUGGAGUUUAUCAUG, the “polymerase ribozyme fitness (log ratio)” value was not above -4.2.

Consider GGAUCUUCUCGAUCUAACAAAAAAGACAAAUCUGACACAAAGCUUGAGAGCAUCUUCGGAUGCAGAGGCAGCAGCCUUUGAUGGCGCGAUAGCGCCAACGUUCUCAACUAUGACACGCAAAACGCGUGCUCCGUUGAAUGGAGUUUAUCAUG, for which the “polymerase ribozyme fitness (log ratio)” value was not above -4.2.

With GGAUCUUCUCGAUCUAACAAAAAAGACAAAUCUGACACAAAGCUUGAGAGCAUCUUCGGAUGCAGAGGCGGCAGCCUUCGGUGGCACGAUAGCGCCAACGUUCUCAACUAUGACACGCAAAACGCGUGCUCCGUUGAAUGGAGUUUAUCAUG, the “polymerase ribozyme fitness (log ratio)” value is not above -4.2.

Regarding GGAUCUUCUCGAUCUAACAAAAAAGACAAAUCUGACACAAAGCUUGAGAGCAUCUUCGGAUGCAGAAGCGGCAGCCUUCAGUGGCGCGAUAGCGCCAACGUUCUCAACUAUGACACGCAAAACGCGUGCUCCGUUGAAUGGAGUUUAUCUUG, the “polymerase ribozyme fitness (log ratio)” value was not above -4.2.

With GGAUCUUCUCGAUCUAACAAAAAAGACAAAUCUGACACAAAGCUUGAGAGCAUCUUCGGAUGCAGAGGCGGCAGCCUUCGGUGGCGCUAUAGCGCCAACGUUUUCAACUAUGACACGCAAAACGGGUGCUCCGUUGAAUGGAGUUUAUCAUG, the “polymerase ribozyme fitness (log ratio)” value was not above -4.2.
